Measured values reported in PubChem BioAssay (Tox21).
The shares of active, inactive and inconclusive entries below differ from those in the screen. For some of these results: Potencies beside an inconclusive call are fits to weak or partial responses and may not hold up. Calls of active or inactive are those of the source. Unless noted, calls come from the whole dose curve; as a rule, active = well fitted curve in the direction sought with a large enough effect in the repeat runs; inconclusive = weak or mixed curves; inactive = no such curve, though single readings can be large; an effect the other way counts as inactive or inconclusive.

What was measured:
[1] = qHTS assay to identify small molecule antagonists of the estrogen related receptor (ERR) signaling pathway (AID 1224819; note: nearly all actives have a fitted effect of over 50% in size; note: potency is the fitted concentration of half-maximal effect)
How it was run: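 LOPAC library screened for antagonism as reduced One-Glo luminescence in ERR reporter cells (2,000/well). Compounds were added after 6 h pre-incubation and left 18 h at 37C; reading followed a 30 min room-temperature reagent step.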

[2] = qHTS assay to identify small molecule antagonists of the sonic hedgehog signaling (Shh) pathway - cell viability counter screen (AID 1259367); note: nearly all actives have a fitted effect of over 55% in size; note: potency is the fitted concentration of half-maximal effect
How it was run: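 After a 4 hr settling period, 3T3 Gli1-Luc cells were treated with DMSO-dissolved chemicals and conditioned medium, kept 24 hr at 37C in 5% CO2, and assayed for viability by CellTiter-Fluor fluorescence following 1 hr reagent incubation.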

[3] = qHTS assay to identify small molecule antagonists of the estrogen receptor beta (ER-beta) signaling pathway - cell viability counter screen (AID 1259382); note: nearly all actives have a fitted effect of over 55% in size; note: potency is the fitted concentration of half-maximal effect;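 for activity change, negative = cytotoxicity: HEK293T cells carrying ER-beta-UAS-bla reporter stimulated with estradiol; % is set by controls: 0 for no effect and ±100 for the full control effect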
How it was run: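 Tox21 10K library tested in qHTS format on ER-beta-bla HEK293T cells stimulated with 1nM E2; 16 hr treatment at 37C. Same-well CellTiter-Glo luminescence served as the cell viability measure.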

[4] = target: Thyrotropin receptor (Homo sapiens) (UniProt P16473); assay: qHTS assay to identify small molecule antagonists of the thyroid stimulating hormone receptor (TSHR) signaling pathway (AID 1259385; calls by dose curve; note: potency is the fitted concentration of half-maximal effect; nearly all actives have a fitted effect of over 20% in size); conditions: TSHR-HEK293 cAMP HTRF, TSH-stimulated antagonist mode; activity change, negative = inhibition: at 92.4 µM (top of the series)
UniProt P16473, sequence (P16473 whole entry, looked up): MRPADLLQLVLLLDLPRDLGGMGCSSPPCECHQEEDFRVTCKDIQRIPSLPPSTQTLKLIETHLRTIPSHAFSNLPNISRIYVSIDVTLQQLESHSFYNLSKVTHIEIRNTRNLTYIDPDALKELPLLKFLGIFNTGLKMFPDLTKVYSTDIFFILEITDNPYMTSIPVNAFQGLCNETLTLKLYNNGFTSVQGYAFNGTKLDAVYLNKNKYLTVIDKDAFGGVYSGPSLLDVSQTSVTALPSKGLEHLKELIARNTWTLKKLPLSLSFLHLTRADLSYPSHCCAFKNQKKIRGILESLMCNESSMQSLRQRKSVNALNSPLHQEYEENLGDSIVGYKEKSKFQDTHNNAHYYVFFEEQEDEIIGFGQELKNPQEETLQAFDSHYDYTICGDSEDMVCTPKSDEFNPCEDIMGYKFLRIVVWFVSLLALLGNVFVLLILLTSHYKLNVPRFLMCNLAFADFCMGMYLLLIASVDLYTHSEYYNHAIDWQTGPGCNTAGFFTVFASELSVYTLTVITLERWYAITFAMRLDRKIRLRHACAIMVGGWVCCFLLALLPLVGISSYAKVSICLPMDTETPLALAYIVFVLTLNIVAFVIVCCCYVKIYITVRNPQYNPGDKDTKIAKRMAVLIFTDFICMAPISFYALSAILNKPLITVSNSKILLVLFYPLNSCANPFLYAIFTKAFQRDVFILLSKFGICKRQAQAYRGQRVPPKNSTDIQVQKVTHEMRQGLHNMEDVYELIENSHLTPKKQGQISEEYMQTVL
How it was run: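 TSHR-HEK293 cells were plated and held 18 h at 37C/5% CO2, then given compound plus Ro20-1724 and stimulated with TSH at 1.5 ng/mL final. After 30 min at room temperature, cAMP was detected with cAMP-d2/anti-cAMP-cryptate (1 h) by fluorescence.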

[5] = qHTS assay to identify small molecule antagonists of the androgen receptor (AR) signaling pathway using the MDA cell line - cell viability counter screen (AID 743041; note: nearly all actives have a fitted effect of over 45% in size; note: potency is the fitted concentration of half-maximal effect; for viability change, negative = cytotoxic: % is set by controls: 0 for no effect and ±100 for the full control effect); conditions: MDA-kb2 viability, CellTiter-Fluor, 16 h, cells co-treated with R1881 androgen agonist; viability change, negative = cytotoxic: at 70.3 µM (top of the series)
How it was run: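 Viability counter screen run alongside the AR antagonist reporter: cells seeded 5 h before compound, R1881 added, 16 h incubation at 37C without CO2, fluorescent CellTiter-Fluor signal quantified.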

[6] = qHTS assay to identify small molecule agonists of the vitamin D receptor (VDR) signaling pathway - cell viability counter screen (AID 743224); note: nearly all actives have a fitted effect of over 50% in size; note: potency is the fitted concentration of half-maximal effect
How it was run: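 VDR-bla cell line, quantitative HTS format; 16 h compound incubation (37C, 5% CO2); ATP-based CellTiter-Glo luminescence measured in the reporter assay wells.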

[7] = qHTS assay to identify small molecule antagonists of the TGF-beta/Smad signaling pathway - cell viability counter screen (AID 1346824); note: nearly all actives have a fitted effect of over 50% in size; note: potency is the fitted concentration of half-maximal effect
How it was run: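 SBE-bla HEK 293T cells were plated overnight at 37 C, then given compounds in DMSO plus TGF-beta1 (added as 0.25 ng/mL solution) for 5 hr. After the bla read, CellTiter-Glo was added to the same wells and luminescence read after 30 min at room temperature.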

[8] = A CellTox Green Cytotoxicity Assay to monitor cytotoxicity in HEK293 cells - 40 hour (AID 1224871); note: nearly all actives have a fitted effect of over 45% in size; note: potency is the fitted concentration of half-maximal effect
How it was run: (§1)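 Each value comes from one timepoint of a single continuous run in which HEK293 cells with CellTox Green were exposed to compound for up to 40 h at 37 C, dye fluorescence rising with cell death.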

[9] = A CellTox Green Cytotoxicity Assay to monitor cytotoxicity in HepG2 cells - 24 hour (AID 1224878); note: nearly all actives have a fitted effect of over 45% in size; note: potency is the fitted concentration of half-maximal effect; for Cytotoxicity: % is set by controls: 0 for no effect and ±100 for the full control effect
How it was run: (§2)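 Continuous culture of HepG2 cells with a membrane-impermeant DNA dye; rising fluorescence marks dead cells. Compound exposure lasted up to 40 h at 37 C, with reads every 8 h from 0 h.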

[10] = qHTS assay to identify small molecule antagonists of the androgen receptor (AR) signaling pathway - cell viability counter screen (AID 743033; note: nearly all actives have a fitted effect of over 45% in size; note: potency is the fitted concentration of half-maximal effect)
[11] = qHTS assay for small molecule agonists of the antioxidant response element (ARE) signaling pathway - cell viability counter screen (AID 743203; calls by dose curve; note: % is set by controls: 0 for no effect and ±100 for the full control effect; nearly all actives have a fitted effect of over 55% in size); conditions: ARE-bla HepG2 viability, CellTiter-Glo luminescence, 16 h; viability change, negative = cytotoxic: at 73.3 µM (top of the series)
How it was run: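 Cells (ARE-bla HepG2, 2,000/well) receive DMSO-dissolved compounds after a 5 hrs rest. Plates incubate 16 hrs at 37C/5% CO2. CellTiter-Glo luminescence is then recorded after 30 min at room temperature.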

[12] = A CellTox Green Cytotoxicity Assay to monitor cytotoxicity in HepG2 cells - 40 hour (AID 1224879); note: potency is the fitted concentration of half-maximal effect; nearly all actives have a fitted effect of over 40% in size
How it was run: as §2

[13] = A CellTox Green Cytotoxicity Assay to monitor cytotoxicity in HepG2 cells - 32 hour (AID 1224883); note: nearly all actives have a fitted effect of over 50% in size; note: potency is the fitted concentration of half-maximal effect
How it was run: as §2

[14] = qHTS assay to identify small molecule antagonists of the estrogen receptor alpha (ER-alpha) signaling pathway using the BG1 cell line - cell viability counter screen (AID 743081); conditions: BG1Luc4E2 viability, CellTiter-Fluor, 22 h; activity change, negative = cytotoxicity: at 70.3 µM (top of the series); note: potency is the fitted concentration of half-maximal effect
[15] = qHTS assay to identify small molecule agonists of the estrogen receptor alpha (ER-alpha) signaling pathway in the presence of an antagonist - cell viability counter screen (AID 1259386);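 note: cells exposed to compounds for 22 h at 37 °C before the viability read; nearly all actives have a fitted effect of over 30% in size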; note: potency is the fitted concentration of half-maximal effect
How it was run: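 Fluorescent CellTiter-Fluor viability signal from VM7Luc4E2 cells, with the reagent added during the final hour of a 22hr compound exposure at 37C in the presence of 10.0nM ICI-182,780.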

[16] = target: Bile acid receptor (Homo sapiens) (UniProt Q96RI1); assay: qHTS assay to identify small molecule antagonists of the farnesoid-X-receptor (FXR) signaling pathway (AID 743217; active = well fitted inhibition curve with a large enough effect in the signal ratio in the repeat runs, not every such curve was filed as active; inconclusive = weak or mixed curves, or effect the other way; inactive = no such curve, though single readings can be large or run the other way; the % refers to the signal ratio; note: % is set by controls: 0 for no effect and ±100 for the full control effect); conditions: HEK293T FXR-UAS-bla, beta-lactamase ratio, CDCA-stimulated, 16 h; activity change, negative = inhibition: at 62.6 µM (top of the series) unless noted
UniProt Q96RI1, sequence (Q96RI1 whole entry, looked up): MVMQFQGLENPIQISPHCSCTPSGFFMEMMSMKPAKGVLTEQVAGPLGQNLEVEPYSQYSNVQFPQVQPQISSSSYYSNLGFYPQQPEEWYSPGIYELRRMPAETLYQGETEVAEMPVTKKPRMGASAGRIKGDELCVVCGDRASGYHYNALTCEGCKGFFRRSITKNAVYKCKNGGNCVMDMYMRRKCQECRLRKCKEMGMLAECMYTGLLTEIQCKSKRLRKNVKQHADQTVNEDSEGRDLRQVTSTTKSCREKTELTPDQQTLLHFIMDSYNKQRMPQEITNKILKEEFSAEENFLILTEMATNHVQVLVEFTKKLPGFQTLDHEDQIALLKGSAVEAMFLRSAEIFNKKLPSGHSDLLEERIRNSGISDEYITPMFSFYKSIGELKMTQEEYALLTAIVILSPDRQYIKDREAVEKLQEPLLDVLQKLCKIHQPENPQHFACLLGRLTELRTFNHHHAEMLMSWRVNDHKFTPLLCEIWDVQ
How it was run: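 Beta-lactamase reporter under UAS control in HEK 293T cells; compound exposure 16 h at 37 °C in the presence of chenodeoxycholic acid (50 uM final); signal from B/G FRET substrate after 2 h at room temperature.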

[17] = target: Aryl hydrocarbon receptor (Homo sapiens) (UniProt P35869); assay: qHTS assay to identify small molecule that activate the aryl hydrocarbon receptor (AhR) signaling pathway (AID 743085); note: potency is the fitted concentration of half-maximal effect; nearly all actives have a fitted effect of over 15% in size
UniProt P35869, sequence (P35869 whole entry, looked up): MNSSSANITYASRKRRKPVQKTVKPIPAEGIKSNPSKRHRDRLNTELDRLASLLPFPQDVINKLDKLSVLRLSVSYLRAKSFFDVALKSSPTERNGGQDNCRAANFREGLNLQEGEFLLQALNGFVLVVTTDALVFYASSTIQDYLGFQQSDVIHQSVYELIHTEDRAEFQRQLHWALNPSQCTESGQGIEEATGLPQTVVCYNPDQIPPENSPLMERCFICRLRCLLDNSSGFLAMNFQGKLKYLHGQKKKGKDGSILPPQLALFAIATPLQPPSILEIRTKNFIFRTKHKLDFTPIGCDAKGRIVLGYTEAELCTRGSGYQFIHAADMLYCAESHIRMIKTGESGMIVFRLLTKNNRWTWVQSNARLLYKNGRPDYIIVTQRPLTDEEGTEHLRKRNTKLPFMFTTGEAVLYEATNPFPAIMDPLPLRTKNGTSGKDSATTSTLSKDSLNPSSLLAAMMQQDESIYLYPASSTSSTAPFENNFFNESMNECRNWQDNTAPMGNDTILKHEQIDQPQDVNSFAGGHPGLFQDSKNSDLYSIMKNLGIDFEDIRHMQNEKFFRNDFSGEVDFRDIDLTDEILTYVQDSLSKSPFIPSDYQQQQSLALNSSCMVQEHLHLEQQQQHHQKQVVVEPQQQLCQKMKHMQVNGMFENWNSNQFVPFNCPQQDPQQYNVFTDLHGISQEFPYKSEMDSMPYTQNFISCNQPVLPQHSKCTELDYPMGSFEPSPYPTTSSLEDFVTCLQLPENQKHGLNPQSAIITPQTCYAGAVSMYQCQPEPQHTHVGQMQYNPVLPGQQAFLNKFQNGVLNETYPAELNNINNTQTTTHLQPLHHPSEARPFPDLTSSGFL
How it was run: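 Reporter assay in engineered HepG2 line HG2L7.5c1, whose plasmid carries twenty dioxin responsive elements upstream of firefly luciferase. Treatment lasted 24 h at 37C; ONE-Glo luminescence gauged induction.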

[18] = A CellTox Green Cytotoxicity Assay to monitor cytotoxicity in HEK293 cells - 32 hour (AID 1224881); note: nearly all actives have a fitted effect of over 40% in size; note: potency is the fitted concentration of half-maximal effect
How it was run: as §1

[19] = target: Peroxisome proliferator-activated receptor gamma (Homo sapiens) (UniProt P37231); assay: qHTS assay to identify small molecule agonists of the peroxisome proliferator-activated receptor gamma (PPARg) signaling pathway (AID 743094; active = well fitted activation curve with a large enough effect in the signal ratio in the repeat runs, not every such curve was filed as active; inconclusive = weak or mixed curves, or effect the other way; inactive = no such curve, though single readings can be large or run the other way; the % refers to the signal ratio; note: potency is the fitted concentration of half-maximal effect); conditions: HEK293H PPARg-UAS-bla, beta-lactamase FRET ratio, 17 h; activation: at 57 µM (top of the series) unless noted
UniProt P37231, sequence (P37231 whole entry, looked up): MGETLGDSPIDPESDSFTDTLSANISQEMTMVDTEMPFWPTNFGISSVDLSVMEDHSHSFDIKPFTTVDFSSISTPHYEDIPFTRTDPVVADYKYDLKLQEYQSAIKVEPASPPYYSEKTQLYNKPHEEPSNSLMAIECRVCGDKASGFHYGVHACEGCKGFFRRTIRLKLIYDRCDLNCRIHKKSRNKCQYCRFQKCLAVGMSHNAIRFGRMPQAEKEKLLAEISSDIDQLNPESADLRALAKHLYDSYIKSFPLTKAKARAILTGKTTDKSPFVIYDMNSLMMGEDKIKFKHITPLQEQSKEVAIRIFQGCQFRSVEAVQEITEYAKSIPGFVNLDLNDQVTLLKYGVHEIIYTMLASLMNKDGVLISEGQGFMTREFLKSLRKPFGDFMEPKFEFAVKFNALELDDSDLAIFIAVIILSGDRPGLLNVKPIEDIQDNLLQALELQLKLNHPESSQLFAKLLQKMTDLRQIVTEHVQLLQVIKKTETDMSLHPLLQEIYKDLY
How it was run: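 Stably transfected HEK293H cells (GeneBLAzer PPARg UAS-bla) were incubated with test substances for 17 h at 37C after a 5 h pre-incubation; beta-lactamase activity was then detected by FRET substrate fluorescence.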

[20] = qHTS assay to identify small molecule agonists of the constitutive androstane receptor (CAR) signaling pathway - cell viability counter screen (AID 1224836); note: nearly all actives have a fitted effect of over 45% in size; note: potency is the fitted concentration of half-maximal effect
How it was run: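 Fluorescence from CellTiter-Fluor indicates live cells after 23 h exposure. The human hepatoma line expresses hCAR and a CYP2B6-2.2kb reporter. Incubation medium contains 0.75 uM PK11195 (final).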
Tags give direction and shape of the fitted curve or compound fluorescence and quenching.

CN1CC[C@@]2(C)c3cc(O)ccc3N(C)C12 (some centres undefined)
Potency [1]: inconclusive: 22.8 µM [inhibitor]

S=c1[nH]c2ccccc2[nH]1
Potency [2]: inconclusive: 54.6 µM [cytotoxic, partial curve] | Potency [3]: inactive | Potency [4]: inconclusive: 68.7 µM [falling, partial curve, poor fit]

N#C/C(=C/c1ccc(O)c(O)c1)C(N)=S
Potency [1]: inconclusive: 32.2 µM [inhibitor]

CC1NCCOC1c1ccccc1 (centres undefined)
Potency [5]: inactive

C(COCC1CO1)OCC1CO1 (centres undefined)
Potency [6]: inconclusive: 54.9 µM [cytotoxic, single point] | Potency [2]: inconclusive: 68.6 µM [cytotoxic, single point] | Potency [7]: inconclusive: 54.9 µM [cytotoxic, partial curve, poor fit]

CNC(=O)O/N=C/C(C)(C)SC
Potency [5]: inconclusive: 7.7 µM [rising, partial curve, poor fit]

CC#Cc1cc(C)nc(Nc2ccccc2)n1
Potency [8]: inactive | Potency [9]: inactive

C=CC(=O)OCC(CC)CCCC (centres undefined)
Potency [10]: inactive

O=[N+]([O-])/C=C/c1ccc2c(c1)OCO2
Potency [1]: inconclusive: 27.6 µM [inhibitor]

O=C(Cc1ccccc1)c1ccccc1
Potency [7]: inconclusive: 5.49 µM [cytotoxic, single point]

O=[N+]([O-])CCO
Potency [11]: inactive | Potency [9]: inconclusive: 23 µM [activator, single point] | Potency [12]: inconclusive: 23 µM [activator, single point] | Potency [13]: inconclusive: 23 µM [activator, single point]

Nc1ccc2c(c1)Cc1ccccc1-2
Potency [5]: inconclusive: 60.8 µM [rising, partial curve, poor fit]

COC(=O)C(C)N(C(=O)c1ccco1)c1c(C)cccc1C (centres undefined)
Potency [6]: inactive | Potency [9]: inconclusive: 1.74 µM [activator, partial curve, poor fit] | Potency [12]: inconclusive: 1.95 µM [activator, partial curve] | Potency [13]: inconclusive: 1.95 µM [activator, partial curve]

FC(F)OC(F)(F)C(F)Cl (centres undefined)
Potency [14]: inactive

CC[N+](=O)[O-]
Potency [10]: inactive | Potency [15]: inactive

Cc1c2ccncc2c(C)c2c1[nH]c1ccccc12
Potency [1]: inconclusive: 4.38 µM [inhibitor]

NC(=O)c1ccc(OCC(O)CN2CC=C(c3ccc(F)cc3)CC2)cc1 (centres undefined)
Potency [1]: inconclusive: 17.4 µM [inhibitor]

CC[C@H](O)C(C[C@H](C)N(C)C)(c1ccccc1)c1ccccc1
Potency [13]: inactive | Potency [2]: inconclusive: 44.1 µM [cytotoxic, partial curve] | Potency [3]: inconclusive: 49.5 µM [cytotoxic, partial curve]

NNC(N)=O
Potency [16]: inactive

CN1CC[C@]23c4c5ccc(O)c4O[C@H]2[C@@H](O)CC[C@H]3[C@H]1C5
Potency [13]: inactive

COC[C@H]1OC(=O)c2coc3c2[C@@]1(C)C1=C(C3=O)C2CCC(=O)[C@@]2(C)C[C@H]1OC(C)=O (some centres undefined)
Potency [1]: inconclusive: 26.6 µM [inhibitor]

Cc1ccc(-c2nc3ccc(C)cn3c2CC(=O)N(C)C)cc1
Potency [17]: inconclusive: 29.8 µM [activator, partial curve, poor fit] | Potency [6]: inactive | Potency [18]: inactive | Potency [2]: inconclusive: 13.3 µM [cytotoxic, partial curve] | Potency [15]: inconclusive: 33.5 µM [cytotoxic, single point]

CCC1(CC)C(=O)C=CNC1=O
Potency [5]: inconclusive: 0.266 µM [rising, full curve, poor fit] | Potency [2]: inactive

c1ccc(CCCN2CCN(CCOC(c3ccccc3)c3ccccc3)CC2)cc1
Potency [1]: inconclusive: 28.7 µM [inhibitor]

NNC(=O)c1ccc(O)cc1
Potency [1]: inactive

CCOC(=O)COc1ccc(Cl)cc1Cl
Potency [9]: inactive

N#CC(C#N)=Cc1ccc(O)c(O)c1
Potency [5]: inconclusive: 26.6 µM [cytotoxic, partial curve, poor fit] | Potency [6]: inactive

CN[C@@H]1C[C@@H](c2ccc(Cl)c(Cl)c2)c2ccccc21
Potency [10]: inconclusive: 23.9 µM [cytotoxic] | Potency [5]: inconclusive: 2.98 µM [rising, single point]

CCC1(C2=NCCN2)Cc2ccccc2O1 (centres undefined)
Potency [19]: inactive

CCOC(=O)c1ccccc1S(=O)(=O)NC(=O)Nc1nc(Cl)cc(OC)n1
Potency [8]: inconclusive: 54.9 µM [activator, single point] | Potency [9]: inactive

NC1(c2ccccc2)CCCCC1
activation [19]: inconclusive: -13.4% | activity change, negative = inhibition [16]: inconclusive: -22.9% [at 81.1 µM] | Potency [20]: inconclusive: 68 µM [cytotoxic] | Potency [2]: active: 27.1 µM

COc1ccccc1N1CCNCC1
Potency [6]: inconclusive: 0.119 µM [cytotoxic, single point]

CCCC[N+]1(C)CCCC1 (tested in a mixture with another compound)
Potency [14]: inactive

C=CCOC(=O)C(C)(C)OC(=O)c1cc(-n2c(=O)cc(C(F)(F)F)n(C)c2=O)ccc1Cl
Potency [10]: inconclusive: 24.1 µM [cytotoxic, partial curve, poor fit]

CN1C(=O)COc2c(C(=O)NC3CN4CCC3CC4)cc(Cl)cc21 (centres undefined)
Potency [14]: inconclusive: 33.5 µM [cytotoxic, single point] | Potency [19]: inconclusive: 26.8 µM [activator, partial curve, poor fit] | Potency [20]: inactive

O=C(CCCN1CCC(n2c(=O)[nH]c3ccccc32)CC1)c1ccc(F)cc1
Potency [3]: inactive | Potency [4]: inconclusive: 33.5 µM [falling, single point]

COc1ncc(F)c2nc(S(=O)(=O)Nc3c(F)cccc3F)nn12
Potency [7]: inactive

CCC1CCC(=O)O1 (centres undefined)
Potency [10]: inconclusive: 0.783 µM [cytotoxic, full curve, poor fit] | Potency [20]: inactive

Clc1ccc(-c2ccccc2)cc1
Potency [8]: inconclusive: 19.5 µM [activator, partial curve] | Potency [18]: inconclusive: 19.5 µM [activator, partial curve]

CCCCOC(C)=O
Potency [14]: inactive | Potency [3]: inactive

O=C(O)C1C(C(=O)O)C2(Cl)C(Cl)=C(Cl)C1(Cl)C2(Cl)Cl (centres undefined)
Potency [5]: inactive

CC(O)CN(CC(C)O)CC(C)O (centres undefined)
Potency [11]: inactive | Potency [7]: inconclusive: 24.6 µM [rising, partial curve, poor fit]

CCCCCl
Potency [14]: inactive | Potency [15]: inactive | Potency [7]: inconclusive: 71 µM [rising, single point]

Cc1nc(N(C)C)nc(OC(=O)N(C)C)c1C
Potency [20]: inactive | Potency [8]: inactive
